Data reported in patent publication US20240182561A1, “CALCIUM VOLTAGE-GATED CHANNEL AUXILIARY SUBUNIT GAMMA 1 (CACNG1) BINDING PROTEINS AND CACNG1-MEDIATED DELIVERY TO SKELETAL MUSCLE” (Regeneron Pharmaceuticals, Inc., priority 2022, published 2024).

B1: REGN14572-M3123 (conjugate)
heavy: QVQLVESGGGVVQPGRSLRLSCAASGFTFSTYGMHWVRQAPGKGLEWVAVIWHDGSDKYYVDSVKGRFSIARDNSKNTLYLQMNSLRVEDTGIYYCARRGIRGTVFDHWGLGTLVTVSS[human IgG1 constant region with changes omitted here]
light: DIQMTQSPSTLSASVGDRVTLTCRASQSISNKLAWYQQKPGKAPNLLIYKASNLESGVPSRFSGSGSGTEFTLTISSLQPDDFATYYCQQYNSYSWTFGQGTKVEIKRTVAAPSVFIFPPSDEQLKSGTASVVCLLNNFYPREAKVQWKVDNALQSGNSQESVTEQDSKDSTYSLSSTLTLSKADYEKHKVYACEVTHQGLSSPVTKSFNRGEC
B2: REGN14570-M3123 (conjugate)
heavy: QVQLQQWGAGLLKPSATLSRTCAVYGGSFSGYYWNWIRQSPGKGLEWIGEILHSGRTNYNPSLKSRVTISVDTSKNQFSLKLTSVTAADTAVYYCAGRIAARHGWFDPWGQGTLVTVSS[human IgG1 constant region with changes omitted here]
light: DIQMTQSPSSVSTSVGDRVTISCRASQDIRKWLAWYQQKPGKAPKLLIYATSSLQSGVPSRFSGSGSGTDFTLTISSLQPEDFATYFCQQANSFPFTFGQGTKLEIKRTVAAPSVFIFPPSDEQLKSGTASVVCLLNNFYPREAKVQWKVDNALQSGNSQESVTEQDSKDSTYSLSSTLTLSKADYEKHKVYACEVTHQGLSSPVTKSFNRGEC

Tested on: C2C12 myotubes
Experiment: Glucocorticoid responsive gene induction in C2C12 myotubes (qPCR)
Assay type: cell-based, mouse
Conditions: 24 or 48 hours of treatment, compared to untreated; 100 nM M3123 or about 25 nM conjugate; FIGS. 26A-26C
Description: After 24 hours, cells were differentiated using DMEM+2% horse serum (Gibco, catalog #16050130). […] DAR 3.9), 24.4 nM […] (anti-CACNG1 conjugated with budesonide; DAR 4.1) or 25.6 nM of […] (anti-CACNG1 conjugated with budesonide; […] Myotubes were treated for 48 hours. For the 24-hour treatment, myotubes were treated with the same concentrations of reagents after 4 days of differentiation for 24 hours. On completion of treatment, media was removed from cells and 1 ml of Trizol reagent (Invitrogen, catalog #15596026) was added per well, before samples were frozen at -80° C. Total RNA was isolated using MagMAXTM-96 for Microarrays Total RNA Isolation Kit (Ambion by Life Technologies, catalog #AM1839) according to the manufacturer's instructions. Isolated RNA was treated with DNAse I (Thermo Scientific, catalog #EN0525) and reverse transcribed using the SuperScript VILO cDNA synthesis Master Mix (Invitrogen, catalog #11754050). Synthesized cDNA was diluted 10-fold in nuclease free water and then assayed by qPCR for the following genes using the listed TaqMan assays: Klf15 (Mm00517792_m1), Fkbp5 (Mm00487406_m1), Pdk4 (Mm01166879_m1), Ppib (Mm00478295_m1) and Actb (Mm00607939_s1). […] Results were analyzed by the ΔΔCt method, and data were analyzed using 2-way ANOVA with Dunnett's multiple comparisons test comparing treated groups to untreated, with p<0.05 significance.

Molecule	C2C12 myotube expression of Klf15, Pdk4, and Fkbp5
B1	significant increases
B2	significant increases
